Experimental data reported in publication PMC4336329 (PLoS ONE, 2015).
Among all 310,000 compounds or so, about 2,200 (0.71%) showed an effect of 50% or more. The effect is printed as a negative number. This is one part of the list.

These compounds were tested against human ether-à-go-go-related gene (hERG) potassium channel (human, UniProt Q12809) (assay: primary screen, population patch clamp on CHO cells stably expressing hERG).
human ether-à-go-go-related gene (hERG) potassium channel, sequence (Q12809 whole entry, looked up): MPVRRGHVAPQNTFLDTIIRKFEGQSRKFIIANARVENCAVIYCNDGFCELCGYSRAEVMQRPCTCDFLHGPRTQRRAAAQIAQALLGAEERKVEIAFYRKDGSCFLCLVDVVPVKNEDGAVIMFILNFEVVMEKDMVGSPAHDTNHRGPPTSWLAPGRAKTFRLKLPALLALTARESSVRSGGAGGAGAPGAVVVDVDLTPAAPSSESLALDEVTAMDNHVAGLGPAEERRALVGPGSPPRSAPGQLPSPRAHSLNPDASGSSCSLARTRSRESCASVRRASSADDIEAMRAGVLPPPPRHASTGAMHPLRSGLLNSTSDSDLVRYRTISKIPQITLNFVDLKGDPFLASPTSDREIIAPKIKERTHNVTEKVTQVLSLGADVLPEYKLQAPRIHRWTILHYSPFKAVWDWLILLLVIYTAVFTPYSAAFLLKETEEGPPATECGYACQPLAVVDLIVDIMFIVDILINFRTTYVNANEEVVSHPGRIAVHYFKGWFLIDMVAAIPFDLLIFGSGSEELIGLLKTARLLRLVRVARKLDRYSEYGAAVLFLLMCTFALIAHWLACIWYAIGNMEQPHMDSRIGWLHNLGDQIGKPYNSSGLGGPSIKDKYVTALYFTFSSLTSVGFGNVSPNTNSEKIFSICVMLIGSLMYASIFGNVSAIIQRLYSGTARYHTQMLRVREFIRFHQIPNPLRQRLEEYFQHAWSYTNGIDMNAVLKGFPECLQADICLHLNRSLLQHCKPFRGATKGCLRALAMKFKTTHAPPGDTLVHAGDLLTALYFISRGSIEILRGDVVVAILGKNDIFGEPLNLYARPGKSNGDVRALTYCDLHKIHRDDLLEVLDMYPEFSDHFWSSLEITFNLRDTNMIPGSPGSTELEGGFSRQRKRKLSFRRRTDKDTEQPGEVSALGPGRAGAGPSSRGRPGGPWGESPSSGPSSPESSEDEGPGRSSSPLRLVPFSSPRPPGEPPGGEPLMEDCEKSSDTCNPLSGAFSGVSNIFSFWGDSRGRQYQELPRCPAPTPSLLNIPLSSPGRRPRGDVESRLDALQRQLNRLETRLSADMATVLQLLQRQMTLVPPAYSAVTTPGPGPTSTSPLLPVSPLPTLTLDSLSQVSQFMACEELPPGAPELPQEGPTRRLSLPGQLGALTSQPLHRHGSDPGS

Compound | hERG current change (%, negative = inhibition) at 1uM [%]
Cc1cc(C)c2nc(SCC(=O)Nc3ccccc3N3CCOCC3)c(C#N)cc2c1 | -14.9
CN(C)S(=O)(=O)c1ccc(NC(=O)C2CC(=O)N(Cc3ccccc3Cl)C2)cc1 (centres unmarked) | 11.9
Cc1cccn2c(=O)c(/C=C(\C#N)S(=O)(=O)c3ccccc3)c(N3CCN(Cc4ccccc4)CC3)nc12 | 8.17
CN(c1cccc(NC(=O)c2ccc(Cl)c(S(=O)(=O)N3CCOCC3)c2)c1)S(C)(=O)=O | 7.69
CC1=NN(C(=O)c2ccco2)C(O)(c2ccccc2)C1 (centres unmarked) | 14.3
Cc1ccc(-n2ncc(C#N)c2/N=C/N2CCCCCC2)cc1 | 16.8
c1csc(-c2noc(CN3CCN4CCCC4C3)n2)c1 (centres unmarked) | 7.74
Cc1cccc(NC(=O)/C(=C\c2ccco2)NC(=O)c2ccccc2)c1 | -3.55
CCS(=O)(=O)N1CCN(C(=O)CC(C)C)CC1 | 10.7
O=C(NCCc1ccccc1)C1CCC(CNS(=O)(=O)c2cccs2)CC1 (centres unmarked) | 5.07
N#CC(c1ccc(O)cc1)N1CCOCC1 (centres unmarked) | 13
CCOC(=O)c1c(CSc2ccccc2)n(C)c2cc(Br)c(OCC(O)CNC(CO)(CO)CO)cc12 (centres unmarked) | 2.39
Cc1onc(-c2ccccc2)c1C(=O)NC(=S)NNC(=O)c1ccncc1 | 9
O=C(NCC1(O)CCCCC1)C1CCC(=O)N(Cc2ccccc2F)C1 (centres unmarked) | 15.8
Cc1[nH]c2ccc(C(=O)OCC(=O)Nc3cccc(S(N)(=O)=O)c3)cc2c1C | 10.1
COC(=O)c1ccccc1NC(=O)c1cccs1 | 5.05
Cc1ccc(NC(=O)CN(C)C(=O)C(C)OC(=O)CNC(=O)c2ccc(Cl)c([N+](=O)[O-])c2)cc1 (centres unmarked) | -21.7
O=C1SC(Cc2ccccc2)C(=O)N1c1ccccc1 (centres unmarked) | 12.3
COc1ccc(CCNC(=O)CCNC(=O)c2ccc(Br)cc2)cc1OC | -0.209
CCOC(=O)c1c(C)[nH]c(NC(=O)Nc2ccc(NC(C)=O)cc2)c1C | 13.9
COc1ccc(-n2ccnc2SCC(=O)NCc2ccc(F)cc2)c(OC)c1 | 4.57
O=P(O)(O)Cc1ccccc1OP(=O)(c1ccccc1)c1ccccc1 | 0.73
CCN1C(=O)N[C@@H](c2ccc(Br)cc2)C(C(C)=O)=C1C | 12.5
CC(=O)Nc1ccc(S(=O)(=O)NCCc2cc3ccc(C)c(C)c3[nH]c2=O)cc1 | -1.43
CCOC(=O)c1c(/N=C/c2ccc(C)cc2O)sc2c1CCC2 | 10.5
COc1ccc(C(=O)NCCSc2ccc(C)cc2)cc1 | 10.7
COC(=O)c1ccc(COc2ccccc2/C=N/NS(=O)(=O)c2ccccc2)cc1 | 18.1

Compound | hERG current change (%, negative = inhibition) at 1uM [%]
CC1CC(NC(=O)/C(C#N)=C/c2ccc[nH]2)CC(C)(C)C1 (centres unmarked) | 13.4
COC(=O)C1(c2ccccc2)NC(c2cccs2)C2C(=O)N(c3ccccc3)C(=O)C21 (centres unmarked) | 11.5
C#CCOCCOCCOCCNc1nc(N2CCN(C(=O)[C@H]([C@@H](C)CC)n3cc([C@@H](N)CO)nn3)CC2)nc(N2CCN(C(=O)[C@H](Cc3cc4ccccc4[nH]3)n3cc([C@@H](N)C(C)CC)nn3)CC2)n1.Cl (some centres unmarked) | -1.28
CSc1cccc(NC(=O)C2(S(=O)(=O)c3ccc(C)cc3)CC2)c1 | 5.37
Cc1cc(/C=N\O)c(C)n1-c1ccncc1 | 11
COc1ccc(-c2nc(CS(=O)CC(=O)N3CCCC3)c(C)o2)cc1 (centres unmarked) | 11.9
CCCn1nc(NC(=O)C2CCCO2)c2cc3ccc(C)cc3nc21 (centres unmarked) | 12.8
COc1cc(C2SCCS2)cc(Br)c1Oc1ncccc1[N+](=O)[O-] | 10.3
CCN1C(=O)[C@H]2[C@@H](c3ccc(-c4ccc5c(c4)OCO5)c(OC)c3)N[C@@](CC(C)C)(C(=O)OC)[C@H]2C1=O.O=C(O)C(F)(F)F | -4.19
CCCCCN=C(C)c1c(O)c2ccccc2oc1=O | -1.14
O=C(COc1ccc2ccccc2c1)N1CCN(C(=O)c2ccc([N+](=O)[O-])cc2)CC1 | -69.3
COc1ccccc1NC(=O)CSc1nc2nc(C)cc(C)c2c(=O)[nH]1 | 4.96
Cc1cc(OCc2cc(C(=O)N(C)C3CCOC3)no2)cc(C)c1Cl (centres unmarked) | -2.5
C/C(=N\NC(=O)c1ccc(CSc2nncn2C)cc1)c1ccc(C#N)cc1 | -0.847
Cc1ccc(CC(=O)Nc2ccncc2)cc1 | 12.9
O=C(COc1ccc(S(=O)(=O)NCc2ccccc2)cc1Cl)N1CCOCC1 | 19.3
COc1ccc(NC(=O)c2cccc(N3C(=O)C4C5C=CC(C5)C4C3=O)c2)cc1Cl (centres unmarked) | 12
COc1ccc(N2CCN(S(=O)(=O)c3c(C)noc3/C=C/N(C)C)CC2)cc1 | -0.468
NC(Cc1c[nH]c2ccc(OCc3ccccc3)cc12)C(=O)O (centres unmarked) | 17.3
COc1cc2c(cc1OC)CN(C(=S)Nc1c(C)cccc1C)CC2 | 11.2
CC(=O)NC12CC3CC(C1)CC(C(=O)Oc1ccc(N(C)S(=O)(=O)c4cc(C)ccc4C)cc1)(C3)C2 | 9.8
Cc1cc2nc(/C(C#N)=C/c3ccncc3)[nH]c2cc1C | -7.28
Cc1nc(N2CCCCC2)c2c(-c3cccs3)csc2n1 | 8.05
COc1ccc2c(c1)CCc1c(C(=O)Nc3ccn(Cc4ccc(C)cc4)n3)noc1-2 | 9.99
COCCOC(=O)C1=C(C)OC(N)=C(C(=O)OC)C12C(=O)Nc1ccccc12 (centres unmarked) | 8.81
CN1C(C)(C)CC(NC(=O)c2ccco2)CC1(C)C | -4.88
